Test results published in publication PMC4336329 (PLoS ONE, 2015).
In all, about 310,000 compounds went through this assay and about 14,000 (4.5%) showed an effect of 50% or more. The effect is printed as a negative number. The list shows a part of the results.

These molecules were tested against human ether-à-go-go-related gene (hERG) potassium channel (human, UniProt Q12809) (assay: primary screen, population patch clamp on CHO cells stably expressing hERG).
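Further: peak tail current of the secondary pulse compared with the same well before compound.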

Sequence of human ether-à-go-go-related gene (hERG) potassium channel (Q12809 whole entry, looked up): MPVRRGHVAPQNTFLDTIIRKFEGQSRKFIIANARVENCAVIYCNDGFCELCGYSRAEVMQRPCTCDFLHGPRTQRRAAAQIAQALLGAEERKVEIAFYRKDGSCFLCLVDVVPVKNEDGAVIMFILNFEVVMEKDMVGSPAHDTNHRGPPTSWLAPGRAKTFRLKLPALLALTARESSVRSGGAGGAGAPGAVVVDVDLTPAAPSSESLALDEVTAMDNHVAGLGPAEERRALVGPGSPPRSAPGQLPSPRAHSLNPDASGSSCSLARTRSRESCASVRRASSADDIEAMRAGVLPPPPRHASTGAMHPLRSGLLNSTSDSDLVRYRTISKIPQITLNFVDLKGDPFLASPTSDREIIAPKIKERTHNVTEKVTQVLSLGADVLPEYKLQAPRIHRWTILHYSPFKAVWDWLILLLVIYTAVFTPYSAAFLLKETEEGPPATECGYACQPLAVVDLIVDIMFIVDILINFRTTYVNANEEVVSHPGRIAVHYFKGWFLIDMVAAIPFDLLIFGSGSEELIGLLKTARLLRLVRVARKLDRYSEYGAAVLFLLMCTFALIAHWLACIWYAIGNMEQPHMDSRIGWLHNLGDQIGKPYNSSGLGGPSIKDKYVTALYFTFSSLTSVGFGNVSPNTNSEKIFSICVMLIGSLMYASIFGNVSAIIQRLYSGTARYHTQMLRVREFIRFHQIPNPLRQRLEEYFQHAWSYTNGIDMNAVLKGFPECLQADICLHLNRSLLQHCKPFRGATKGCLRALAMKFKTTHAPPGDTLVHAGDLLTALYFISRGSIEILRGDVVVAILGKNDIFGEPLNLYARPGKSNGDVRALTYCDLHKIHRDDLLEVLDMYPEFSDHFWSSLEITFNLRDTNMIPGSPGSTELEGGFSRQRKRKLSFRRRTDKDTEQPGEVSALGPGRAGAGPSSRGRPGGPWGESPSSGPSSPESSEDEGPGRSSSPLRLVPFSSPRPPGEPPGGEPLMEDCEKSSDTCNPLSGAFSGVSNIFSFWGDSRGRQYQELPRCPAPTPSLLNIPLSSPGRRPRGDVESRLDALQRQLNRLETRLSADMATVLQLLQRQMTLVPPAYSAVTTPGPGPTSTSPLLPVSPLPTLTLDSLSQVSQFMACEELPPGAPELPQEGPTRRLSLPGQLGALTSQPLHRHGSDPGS

Row | SMILES | hERG current change (%, negative = inhibition) at 10uM
1 | CCCN(CC(=O)Nc1ccc(C(N)=O)cc1)CC(=O)Nc1ccccc1C | 7.89%
2 | CCc1ccccc1N1CC(C(=O)Nc2cc(C)on2)CC1=O (stereo not shown) | -2.78%
3 | C=CCNC(=S)NN(c1ccccc1)c1ccccc1 | 1.16%
4 | Cc1ccc(S(=O)(=O)N/N=C/C(C)(C)CO)cc1 | 7.63%
5 | O=C(Nc1nc(=O)c2ccccc2s1)c1ccccc1 | 8.23%
6 | O=C(Nc1ccccc1C(=O)NCc1cccnc1)c1ccco1 | -2.35%
7 | CCN1C(=O)[C@H]2[C@@H](c3ccc(C)cc3)N3C(=O)N(c4cccc(Cl)c4)C(=O)[C@@]3(Cc3ccccc3)[C@H]2C1=O | 8.14%
8 | O=Cc1c(-c2ccc(F)cc2)nc2ccccn12 | 4.88%
9 | Cc1cc(C(=O)CSc2nnc(-c3cccnc3)n2-c2ccccc2F)c(C)n1C | -24.5%
10 | CC(=O)N[C@@H]1[C@@H](O)[C@@H]2OC(c3ccccc3)OC[C@H]2O[C@@H]1N=[N+]=[N-] (stereo partly shown) | 13.2%
11 | COc1ccc2nc(NC(=O)CSc3ccccc3)sc2c1 | -4.55%
12 | CCOc1ccc(Br)cc1S(=O)(=O)Nc1cccc(S(=O)(=O)N(C)c2ccccc2)c1 | 8.61%
13 | Cc1sc(N)c(C(=O)c2ccccc2Cl)c1C | 3.8%
14 | Cc1ccc(Cc2nc(-c3cccc(C)c3)no2)cc1 | 11.5%
15 | COc1cc(NC(=O)CSc2nnc3c(n2)[nH]c2ccc(S(=O)(=O)NC(C)C)cc23)cc(OC)c1OC | 11.6%
16 | COc1cc2c(cc1OC)CN(C(=O)c1cccs1)CC2 | -1.52%
17 | CCOc1ccc(C(=O)NC2CCN(C(=S)NCc3ccco3)CC2)cc1 | -43.6%
18 | Cc1ccc(-c2csc(=S)n2CC(=O)OCC(=O)NCc2ccco2)cc1 | -30.5%
19 | C=CCn1c(SCc2n[nH]c(=S)n2-c2ccccc2)nnc1-c1ccccc1 | 14%
20 | CC(C)CCN1CCN(Cc2ccsc2)CC1CCO (stereo not shown) | -6.33%
21 | O=C(NC1CC1)c1c[nH]c2ccc(S(=O)(=O)Nc3cccc(C(F)(F)F)c3)cc2c1=O | 1.18%
22 | CCc1ccc(NC(=S)NCc2cccnc2)cc1 | 8.92%

Row | SMILES | hERG current change (%, negative = inhibition) at 10uM
23 | O=C(NN1CCOCC1)c1ccc(Cl)cc1 | -26.1%
24 | O=C(NCc1ccncc1)C1CCC(=O)N(CCc2ccc(Cl)cc2)C1 (stereo not shown) | -65.5%
25 | Cc1ccc2nc3c(nc2c1)-c1ccccc1C3=O | 7.24%
26 | O=C(CCC(F)(F)F)N1CCCC(CO)(CCc2ccccc2)C1 (stereo not shown) | -13.5%
27 | COc1cc(/C=N/O)ccc1OCc1ccccc1Cl | 2.43%
28 | CCN(c1ccccc1)S(=O)(=O)c1cc([N+](=O)[O-])ccc1N | -10.3%
29 | CC(=O)Nc1cc(S(=O)(=O)Nc2ccccc2)c(C)cc1C | -4.25%
30 | CCOC(=O)c1[nH]c2ccccc2c1NC(C)=O | -3.18%
31 | COc1ccc(C(=O)C[n+]2cccc3cc(C)ccc32)cc1.[Br-] | 15.3%
32 | Cc1c(C(=O)NCCCc2ccccc2)cccc1[N+](=O)[O-] | -4.32%
33 | CN(C)c1nc(-c2ccccc2)cc(C(F)(F)F)c1C#N | 19.6%
34 | COc1cc2ccccc2cc1C(=O)Nc1nc(C)c(C(C)=O)s1 | 19.4%
35 | COCC(=O)Nc1cc(C)cn(Cc2cccc(C(F)(F)F)c2)c1=O | -3.85%
36 | COc1ccc(N=C2S/C(=C\c3ccc(N4CCOCC4)o3)C(=O)N2CCc2c[nH]c3ccccc23)cc1 | 17.3%
37 | O=C(O)c1ccccc1C(=O)OCCCc1ccncc1 | 18.3%
38 | C=CCn1cc(-c2cccc(C(F)(F)F)c2)cc(C#N)c1=O | -4.14%
39 | CCc1ccc(NC(=O)C(C)Oc2nnc(-c3cccs3)c(-c3cccs3)n2)cc1 (stereo not shown) | -9.79%
40 | COCCn1c(SC2CCOC2=O)nc2ccccc2c1=O (stereo not shown) | -31%
41 | Cc1nnc2ccc(-c3cccc(NS(=O)(=O)c4ccccc4[N+](=O)[O-])c3)nn12 | -13.7%
42 | CNC(=O)C1Cc2ccccc2CN1S(=O)(=O)c1ccc(OC)c(OC)c1 (stereo not shown) | 1.68%
43 | Cc1cc2nc(-c3ccc[nH]c3=O)n(Cc3cccc(F)c3)c2cc1C | 10.8%
44 | O=C1CN(C(=O)CNCc2ccc(Cl)cc2)c2ccccc2N1 | -15.4%

Row | SMILES | hERG current change (%, negative = inhibition) at 10uM
45 | Cc1cc(N=Nc2ccc(C)c(N=Nc3cc(C)c(N)cc3N)c2)c(N)cc1N | 17.7%
46 | Cc1cccc(-n2c(C)cc(/C=N\NC(=O)c3ccco3)c2C)c1 | -12.8%
47 | CCN(CC)c1ccc(/C=N/N(c2ccccc2)c2ccccc2)c(O)c1 | 13.3%
48 | Cc1ccc(C)c(S(=O)(=O)Nc2ccc(C(=O)NCC(c3ccco3)N3CCCCC3)cc2)c1 (stereo not shown) | -42.6%
49 | Cc1ccc2c(c1)c1c(n2CC(O)CN2CCC(C)CC2)CCCC1 (stereo not shown) | -58.1%
50 | CCOc1ccc(C(=O)CCC(=O)Nc2cc(C)ccn2)cc1 | 11.8%
51 | CCN1CC(=O)Nc2cc(S(=O)(=O)N3CCOCC3)ccc21 | 4.89%
52 | O=C(CN1C(=O)NC2(CCCCC2)C1=O)Nc1ccc2c(c1)OCCCO2 | -2.21%
53 | CCSc1nnc(NC(=O)Cn2cnc3ccccc3c2=O)s1 | 8.7%
54 | CCN(CC)S(=O)(=O)c1cc(C(=O)N(C)CC(=O)Nc2ccc(Cl)cc2)ccc1Cl | -22.6%
55 | O=C(c1cccc(S(=O)(=O)NCCOc2ccccc2)c1)N1CCN(c2ncccn2)CC1 | -37.6%
56 | O=C(CSc1nc(=O)[nH]c2c1CCCC2)Nc1cc(C(F)(F)F)cc(C(F)(F)F)c1 | 13.3%
57 | CCOC(=O)c1sc(NC(=O)Nc2ccccc2)cc1C | 0.859%
58 | CC1(C)COC(/C=C/c2cccc([N+](=O)[O-])c2)=N1 | -12.4%
59 | Cl.O=C(c1ccco1)N1CCN(C(c2ccccc2)c2nnnn2C2CCCC2)CC1 (stereo not shown) | -36.8%
60 | Cc1[nH][nH]c(=O)c1N=Nc1ccccc1Cl | 25.7%
61 | Cc1ccc(N(CC(=O)NC2CCCC2)C(=O)CNC(=O)c2cccs2)cc1C | 8.83%
62 | O=[N+]([O-])c1ccccc1S(=O)(=O)Nc1cccc(-c2ccc(N3CCCC3)nn2)c1 | -0.232%
63 | Cc1ccc(NC(=O)c2ccc(NCc3ccco3)c([N+](=O)[O-])c2)cc1Cl | 10.5%
64 | COc1cccc(OC)c1OCCCCCc1c(C)n[nH]c1C.Cl | 1.36%
65 | COC(=O)c1ccc(/C=C/c2ccc3cccc(OC)c3n2)cc1 | -4.59%
66 | Cn1cc(C=O)c2cc(F)ccc21 | 19.9%

Row | SMILES | hERG current change (%, negative = inhibition) at 10uM
67 | CCOc1ccc(S(=O)(=O)NC2CCCC2)cc1 | 16%
68 | Cc1c(N(C)S(=O)(=O)c2cccc(C(=O)NCC3CCCO3)c2)c(=O)n(-c2ccccc2)n1C (stereo not shown) | -12%
69 | CN(C)C(CNC(=O)c1c(F)cccc1Cl)c1ccco1 (stereo not shown) | 26.7%
70 | O=C(Nc1nnc(-c2ccco2)o1)c1ccc(Cl)s1 | 8.23%
71 | CCN(CC)P(=O)(Nc1ccc([N+](=O)[O-])cc1)c1c(C)nn(CCC#N)c1NC(=O)c1ccc(Cl)cc1 (stereo not shown) | -56.9%
72 | ON=C1c2ccccc2-c2ccccc21 | 21.4%
73 | O=C(Nc1c(C(=O)O)[nH]c2ccc(F)cc12)c1cccc(C(F)(F)F)c1 | -11.1%
74 | Cc1onc(-c2c(Cl)cccc2Cl)c1C(=O)N1CCN(Cc2ccccc2)CC1 | -8.32%
75 | Cc1nn(-c2ccccc2)c(NC(=O)c2ccccc2)c1Br | -1.17%
76 | CC(C)CC1C(C#N)=C(N)SC(N)=C1C#N | 15.9%
77 | CC(=O)N1CCC(N(C(=O)Nc2ccc(C)c(C)c2)C2CCCC2)CC1 | -31.2%
78 | Nc1nonc1-n1nnc(C(=O)N/N=C/c2cc(Cl)ccc2O)c1CN1CCCCCC1 | -1.16%
79 | Cn1c(-c2ccc(Cl)nc2)nc2ccccc21 | 5.18%
80 | COc1ccc(CCNc2nnc(Sc3nnnn3-c3ccccc3)s2)cc1OC | -37.6%
81 | CC(=O)Nc1sc(/C(C#N)=C\c2cccc(Cl)c2)nc1-c1ccc(C)cc1 | 4.68%
82 | CC(C)=CCC/C(C)=C/CCC(C)NCCN1CCNCC1 (stereo not shown) | -9.44%
83 | COc1ccccc1N1CCN(Cc2ccc(SC)cc2)CC1.O=C(O)C(=O)O | -72.9%
84 | CN(C)c1nc(NCc2ccccc2)nc(N/N=C/c2cccc(Br)c2)n1 | 29.7%
85 | O=C(NCCSCc1ccccc1)c1ccc(F)cc1 | -12.4%
86 | COC(=O)C1(C(F)(F)F)N=C2Sc3ccccc3N2C(N2CCOCC2)=N1 (stereo not shown) | 14%
87 | NC(=O)c1nsc(C(=O)N(c2ccc(Cl)cc2)C(C(=O)NCC2CCCO2)c2cccs2)c1N (stereo not shown) | 11.4%
88 | O=C(COC(=O)Cc1ccc(F)cc1)Nc1ccc2[nH]c(=O)[nH]c2c1 | 10.8%
